Data: publication PMC6323126
Residue numbers refer to the chain shown, from its start. No constants are given. Whether binding was seen depends on the method and setting. In cells and extracts the contact can be indirect. Some binding calls cover weakened binding; strength is not graded here. Where a sequence is shown, tags or fusion partners need not be part of it.

Assays:
Assay in all cases: co-IP; HEK293FT cells transfected with tagged plasmids, lysed 24 h later in RIPA buffer; immunoprecipitation with indicated antibodies and Protein A/G beads; immunoblot
[1] = target: T1, Flag-tagged STRN3 R176A/E185A (human) (UniProt Q13033)
T1 sequence: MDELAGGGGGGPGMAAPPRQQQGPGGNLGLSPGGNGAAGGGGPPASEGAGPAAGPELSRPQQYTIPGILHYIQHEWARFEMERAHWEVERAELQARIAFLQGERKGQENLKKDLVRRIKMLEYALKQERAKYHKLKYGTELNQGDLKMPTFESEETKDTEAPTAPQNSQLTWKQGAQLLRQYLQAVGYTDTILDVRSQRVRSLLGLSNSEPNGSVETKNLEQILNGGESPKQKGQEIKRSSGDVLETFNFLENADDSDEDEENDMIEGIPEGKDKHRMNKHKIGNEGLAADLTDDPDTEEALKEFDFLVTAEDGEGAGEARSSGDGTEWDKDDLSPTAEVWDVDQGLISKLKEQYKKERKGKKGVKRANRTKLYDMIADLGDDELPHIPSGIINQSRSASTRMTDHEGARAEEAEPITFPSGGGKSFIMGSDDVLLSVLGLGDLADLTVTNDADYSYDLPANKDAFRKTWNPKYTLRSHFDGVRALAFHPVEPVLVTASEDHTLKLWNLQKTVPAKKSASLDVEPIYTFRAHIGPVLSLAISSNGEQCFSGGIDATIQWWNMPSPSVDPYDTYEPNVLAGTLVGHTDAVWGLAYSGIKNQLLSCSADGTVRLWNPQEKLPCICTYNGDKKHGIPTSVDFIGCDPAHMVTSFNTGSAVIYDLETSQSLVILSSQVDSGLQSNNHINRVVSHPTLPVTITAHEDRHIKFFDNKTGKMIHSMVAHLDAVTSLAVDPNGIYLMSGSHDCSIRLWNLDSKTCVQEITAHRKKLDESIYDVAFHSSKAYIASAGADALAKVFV

[2] = target: T2, Flag-tagged SLMAP Δ161–230 (human) (UniProt Q14BN4)
T2 sequence: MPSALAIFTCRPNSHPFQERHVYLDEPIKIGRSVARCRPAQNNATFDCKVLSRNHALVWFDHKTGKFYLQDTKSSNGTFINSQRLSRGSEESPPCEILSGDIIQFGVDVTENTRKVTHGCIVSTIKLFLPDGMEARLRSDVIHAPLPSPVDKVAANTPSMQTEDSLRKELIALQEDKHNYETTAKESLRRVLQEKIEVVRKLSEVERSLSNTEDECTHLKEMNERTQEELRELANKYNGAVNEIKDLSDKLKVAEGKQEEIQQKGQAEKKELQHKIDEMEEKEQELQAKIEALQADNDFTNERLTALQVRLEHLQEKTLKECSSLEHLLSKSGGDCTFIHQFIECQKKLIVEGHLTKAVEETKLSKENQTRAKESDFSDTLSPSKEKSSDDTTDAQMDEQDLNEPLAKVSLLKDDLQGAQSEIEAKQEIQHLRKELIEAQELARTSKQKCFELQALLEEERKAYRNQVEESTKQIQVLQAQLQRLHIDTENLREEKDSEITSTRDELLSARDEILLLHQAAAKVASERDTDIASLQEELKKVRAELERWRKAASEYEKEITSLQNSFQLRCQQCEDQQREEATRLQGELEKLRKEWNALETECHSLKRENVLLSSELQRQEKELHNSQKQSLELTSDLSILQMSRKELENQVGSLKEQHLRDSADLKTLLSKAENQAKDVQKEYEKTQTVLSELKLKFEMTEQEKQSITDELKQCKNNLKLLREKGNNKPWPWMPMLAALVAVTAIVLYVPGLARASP

[3] = target: T3, Flag-tagged STRN3 (wildtype, in cells) (human) (UniProt Q13033)
T3 sequence: T1 sequence with A176R, A185E

binding [1]: no binding
binding [2]: no binding
binding [3]: binds
B1: HA-tagged SIKE1 (wildtype, in cells) (protein, UniProt Q9BRV8 1-207)
chain: MSCTIEKILTDAKTLLERLREHDAAAESLVDQSAALHRRVAAMREAGTALPDQYQEDASDMKDMSKYKPHILLSQENTQIRDLQQENRELWISLEEHQDALELIMSKYRKQMLQLMVAKKAVDAEPVLKAHQSHSAEIESQIDRICEMGEVMRKAVQVDDDQFCKIQEKLAQLELENKELRELLSISSESLQARKENSMDTASQAIK
